# Experimental data from article PMC5515408.
# Some of the results follow. At the low end of the ranking the order means little.
# Biological target: MAX:MAX (p21) (UniProt P61244-2)
# Assay: protein-binding microarray (anti-MAX antibody)
# Details: PBM: 15 mM Tris-HCl pH 7.5, 100 mM KCl, 0.075% NP40, 7.5 mM beta-mercaptoethanol, 375 ng/ul BSA, 8 ng/ul poly(dA-dT):(dA-dT), 550 ng complex, 60 min, room …; high values mean tight binding; double strand, one strand shown; sequences stand for … in CCGGC…TTAATAGCTAAGATTACTATATCGACG
row,Sequence,binding signal (log2 normalized fluorescence)
1,TGAACACTTGTA,0.134
2,TGATTATTAGTA,-1.14
3,TGACCCGGGGTC,-0.231
4,TGAGTCCTCGTA,-0.692
5,TGAGTGGCGGTA,0.049
6,TGAATAAGTGTA,-0.73
7,TGATCGAGCGTA,-1
8,TGATTGCAGGTA,-0.214
9,TGAGAATCGGTA,-1.06
10,TGATAAGCCGTA,-1.36
11,TGATGATGTGTA,0.000904
12,TGACACGCTCTA,2.64
13,TGACATCGTGTA,1.86
14,TGAAAACGGGTA,-0.282
15,TGACTCGGAGTA,-0.796
16,TGAGCCTTAGTA,-1.29
17,TGATCCTACGTA,-0.737
18,TCCAACGTGGTA,3.05
19,TGAAGCAGTGTA,-0.444
20,TGAGTCCAGGTA,-0.78
21,TGAGCTGACGTA,-0.718
22,TGACGCCTTGTA,-0.43
23,TGACATCCTGTA,0.242

row,Sequence,binding signal (log2 normalized fluorescence)
1,TGACACACGGTA,1.51
2,TGAAGTACGGTA,-0.26
3,TGACACATGGTC,3.13
4,TGACACGTGGGC,3.35
5,TAACAAGTGATA,0.403
6,TGAGGGGAGGTA,1.01
7,TGATAGCAGGTA,-0.613
8,TGAGGACGCGTA,-0.268
9,TGAGCATTTGTA,-0.22
10,TGATCTGCTGTA,-0.65
11,TGAAGGCTCGTA,-0.994
12,TGAATGAGGGTA,0.0743
13,TGACAGCAAGTA,0.621
14,TGAAGCGGGGTT,0.322
15,TGACAGTCGGTA,-0.0821
16,TGAAGTGATGTA,-0.128
17,TGAACTCAGGTA,-0.666
18,TGACTCCAGGTA,-0.56
19,TGAGTACACGTA,0.15
20,TCTCAGGTTTTT,-0.587
21,TGATTGACGGTA,-0.929
22,TGAGGGCTGGTA,-0.268
23,TCATACGTAGTA,0.528

row,Sequence,binding signal (log2 normalized fluorescence)
1,CGACGCGAGGTA,2.05
2,TGAAACGTCGTA,-0.131
3,TGAGGAACCGTA,-0.709
4,TGAGTTGTTGTA,-0.83
5,TGAAAATGCGTA,0.393
6,TGATTCACGGTA,0.000807
7,TGAATTGGTGTA,-0.864
8,TGACCCATGGTA,2.08
9,TGATAAAAAGTA,-1.09
10,TGATGGCCCGTA,0.236
11,TGACACGTGGAA,3.16
12,TGATTCAGCGTA,-1.02
13,TGCCATGTGGGA,3.34
14,TGATTTGTGGTA,-0.799
15,TGGCACTTGGTA,-0.00109
16,TGACAGGATGTA,0.32
17,CGCCACGTGGTC,3.44
18,TGATTTGCTGTA,-0.467
19,TGAGCAGTCGTA,-0.649
20,TGACCAGACGTA,-0.192
21,TGATGAACTGTA,-0.564
22,TGATGTGCAGTA,0.631
23,TGAGTGACAGTA,0.0728

row,Sequence,binding signal (log2 normalized fluorescence)
1,TGACTGTCAGTA,0.0715
2,TGATGTCGAGTA,-0.197
3,TGACGCCTAGTA,-0.368
4,TGAATTACAGTA,-0.758
5,TGACACGCGGAA,3.1
6,TGATGTCATGTA,0.624
7,TGAGGACTTGTA,-0.44
8,TGAATCACCGTA,-0.221
9,TGACAGGTGGCA,2.8
10,TGAGTTTGGGTA,-1.33
11,TGACTTAGCGTA,-0.922
12,TGATCCGCGGTA,-0.53
13,TGACCGCCGGTA,-0.241
14,TGACACGTGGCT,3.04
15,TGATACCTCGTA,-0.53
16,TGACTCAGGGTA,-0.515
17,TGAACCGATGTA,-0.234
18,TGAGCACCTGTA,1.68
19,TGAACGCCTGTA,0.727
20,TGAGAGACCGTA,-0.789
21,TAACACGAGGTA,3.28
22,TGATCGGCCGTA,-1.22
23,TGACACGCACTA,2.11

row,Sequence,binding signal (log2 normalized fluorescence)
1,TGAGCCACAGTA,-0.607
2,TGATGTGGAGTA,0.0148
3,TGACCTTCTGTA,-0.413
4,TGACTACTTGTA,-0.601
5,TGAATATTTGTA,-1.13
6,TGATAACATGTA,1.05
7,TGACTGCCCGTA,-0.176
8,TGAACGGGCGTA,-0.667
9,TGAATGTCGGTA,0.217
10,TGACAGTCAGTA,0.00471
11,TGATAAGAGGTA,-0.771
12,TGAGTCTGAGTA,-0.994
13,TGAAACGACGTA,-0.191
14,TGACTTAGAGTA,-0.92
15,TGACCGTGAGTA,0.158
16,TGATGCTACGTA,-0.0564
17,TTAAACCGGGTT,-0.678
18,ATAGTATACAAT,0.0214
19,TGACGCGACGTA,0.105
20,TGACCTATAGTA,-0.773
21,TGGCCCGTGATA,0.636
22,TGACGTAGAGTA,-0.966
23,TGAGACACGGTA,0.481

row,Sequence,binding signal (log2 normalized fluorescence)
1,TGATGTTAGGTA,0.0129
2,GGACACATGGTA,3.18
3,TGACAACTCGTA,-0.0789
4,CACACCGTATAT,2.94
5,TGAGGAGGAGTA,-0.901
6,TGAAAAAGAGTA,-1.13
7,TGACAAAGGGTA,-0.411
8,TGATTTACTGTA,-0.884
9,TGAACAGATGTA,1.2
10,TGAAATTCAGTA,-0.776
11,TGACACGAGGCA,3.19
12,TTACACGGGGTA,2.8
13,TGACTCTTAGTA,-0.969
14,TGATGTCTGGTA,-0.349
15,TGACAGCCGGTA,0.125
16,TGAGCTATCGTA,-1.15
17,TGATAGTAAGTA,-0.85
18,TGATCCGAAGTA,-0.99
19,TGACACTATGTA,0.0839
20,TGACACGTGCAG,2.98
21,TGAGAAACCGTA,-0.966
22,TGACCTTATGTA,0.792
